{"source": "ChEMBL document CHEMBL1961873", "about": "“Compounds: GSK PKIS; Assays: Nanosyn kinase panel” (2012)", "note": "For some assays here: This list holds what a sample rich in strong results left over. The list shows a part of the results, in another mix than the full data.", "data": [{"target": "5'-AMP-activated protein kinase catalytic subunit alpha-2 (Homo sapiens) (UniProt P54646)", "sequence (P54646 whole entry, looked up)": "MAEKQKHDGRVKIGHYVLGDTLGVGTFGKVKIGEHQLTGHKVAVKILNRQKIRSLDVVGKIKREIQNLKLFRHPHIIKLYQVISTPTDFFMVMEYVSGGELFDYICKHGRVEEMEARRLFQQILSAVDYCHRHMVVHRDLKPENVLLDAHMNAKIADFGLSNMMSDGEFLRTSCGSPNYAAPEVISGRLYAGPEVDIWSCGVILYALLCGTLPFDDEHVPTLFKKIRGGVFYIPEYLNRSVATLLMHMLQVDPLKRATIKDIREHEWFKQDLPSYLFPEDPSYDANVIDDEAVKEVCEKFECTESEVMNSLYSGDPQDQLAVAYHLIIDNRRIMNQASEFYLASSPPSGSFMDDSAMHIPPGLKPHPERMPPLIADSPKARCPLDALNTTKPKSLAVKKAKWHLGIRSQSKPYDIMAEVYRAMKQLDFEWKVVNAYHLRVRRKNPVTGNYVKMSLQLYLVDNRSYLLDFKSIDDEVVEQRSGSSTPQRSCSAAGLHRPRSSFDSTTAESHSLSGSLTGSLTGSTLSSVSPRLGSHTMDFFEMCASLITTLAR", "settings": "at 1 µM", "units": {"inhibition": "%"}, "values": [{"smiles": "O=C(O)c1ccc(Oc2nccc(-c3c(-c4ccc(F)cc4)ncn3C3CCNCC3)n2)cc1", "inhibition": 1.74}, {"smiles": "CC(C)(C)c1ccc(Oc2nccc(-c3c(-c4ccc(F)cc4)ncn3C3CCNCC3)n2)cc1", "inhibition": 5.9}, {"smiles": "Fc1ccc(Oc2nccc(-c3c(-c4ccc(F)cc4)ncn3C3CCNCC3)n2)cc1", "inhibition": -0.1}, {"smiles": "COc1ccccc1C1=C(Nc2ccccc2)C(=O)NC1=O", "inhibition": 5.49}, {"smiles": "Fc1ccc(-c2ncn(C3CCNCC3)c2-c2ccnc(Oc3ccc(Cl)cc3)n2)cc1", "inhibition": 0.55}, {"smiles": "NC(=O)CCc1ccccc1Oc1nccc(-c2c(-c3ccc(F)cc3)ncn2C2CCNCC2)n1", "inhibition": -2.91}, {"smiles": "COc1ccccc1Oc1nccc(-c2c(-c3ccc(F)cc3)ncn2C2CCNCC2)n1", "inhibition": 7.3}, {"smiles": "CS(=O)(=O)c1ccc(Oc2nccc(-c3c(-c4ccc(F)cc4)ncn3C3CCNCC3)n2)cc1", "inhibition": 3.41}, {"smiles": "Cc1cccc(Oc2nccc(-c3c(-c4ccc(F)cc4)ncn3C3CCNCC3)n2)c1C", "inhibition": 4.95}, {"smiles": "Fc1ccc(-c2ncn(C3CCNCC3)c2-c2ccnc(Oc3cccc(F)c3)n2)cc1", "inhibition": 4.17}, {"smiles": "Fc1ccc(-c2ncn(C3CCNCC3)c2-c2ccnc(Oc3cccc(C(F)(F)F)c3)n2)cc1", "inhibition": 3.9}, {"smiles": "O=C1NC(=O)C(c2ccccc2Cl)=C1Nc1cc(Cl)c(O)c(Cl)c1", "inhibition": 3.61}, {"smiles": "O=C1NC(=O)C(c2ccccc2)=C1Nc1ccccc1", "inhibition": 5.48}, {"smiles": "O=C1NC(=O)C(c2cccc([N+](=O)[O-])c2)=C1Nc1cc(Cl)c(O)c(Cl)c1", "inhibition": 4.91}]}, {"target": "T1, NUAK family SNF1-like kinase 1 (Homo sapiens) (UniProt O60285)", "T1 sequence (whole entry)": "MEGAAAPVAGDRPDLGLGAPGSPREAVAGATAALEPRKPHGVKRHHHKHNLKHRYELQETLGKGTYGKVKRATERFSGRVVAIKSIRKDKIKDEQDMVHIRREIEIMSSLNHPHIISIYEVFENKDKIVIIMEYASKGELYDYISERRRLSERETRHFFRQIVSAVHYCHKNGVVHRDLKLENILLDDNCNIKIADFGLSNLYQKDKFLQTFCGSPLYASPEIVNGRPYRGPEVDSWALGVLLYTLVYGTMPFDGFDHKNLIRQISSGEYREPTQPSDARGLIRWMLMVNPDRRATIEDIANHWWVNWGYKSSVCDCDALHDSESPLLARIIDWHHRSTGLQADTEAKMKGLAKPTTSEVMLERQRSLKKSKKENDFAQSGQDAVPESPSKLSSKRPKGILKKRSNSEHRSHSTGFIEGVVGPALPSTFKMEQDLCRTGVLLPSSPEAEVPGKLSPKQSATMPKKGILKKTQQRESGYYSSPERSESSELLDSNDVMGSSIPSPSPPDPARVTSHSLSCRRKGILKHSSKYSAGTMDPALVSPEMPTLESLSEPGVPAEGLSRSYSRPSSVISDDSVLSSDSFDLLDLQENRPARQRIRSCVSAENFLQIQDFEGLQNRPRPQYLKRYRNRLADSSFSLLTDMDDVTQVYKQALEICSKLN", "settings": "at 0.1 µM", "units": {"inhibition": "%"}, "values": [{"smiles": "O=C(O)c1ccc(Oc2nccc(-c3c(-c4ccc(F)cc4)ncn3C3CCNCC3)n2)cc1", "inhibition": -1.45}, {"smiles": "CC(C)(C)c1ccc(Oc2nccc(-c3c(-c4ccc(F)cc4)ncn3C3CCNCC3)n2)cc1", "inhibition": -0.96}, {"smiles": "Fc1ccc(Oc2nccc(-c3c(-c4ccc(F)cc4)ncn3C3CCNCC3)n2)cc1", "inhibition": 0.78}, {"smiles": "COc1ccccc1C1=C(Nc2ccccc2)C(=O)NC1=O", "inhibition": -0.07}, {"smiles": "Fc1ccc(-c2ncn(C3CCNCC3)c2-c2ccnc(Oc3ccc(Cl)cc3)n2)cc1", "inhibition": 1.46}, {"smiles": "NC(=O)CCc1ccccc1Oc1nccc(-c2c(-c3ccc(F)cc3)ncn2C2CCNCC2)n1", "inhibition": 2.41}, {"smiles": "COc1ccccc1Oc1nccc(-c2c(-c3ccc(F)cc3)ncn2C2CCNCC2)n1", "inhibition": 4.09}, {"smiles": "CS(=O)(=O)c1ccc(Oc2nccc(-c3c(-c4ccc(F)cc4)ncn3C3CCNCC3)n2)cc1", "inhibition": -2.66}, {"smiles": "Cc1cccc(Oc2nccc(-c3c(-c4ccc(F)cc4)ncn3C3CCNCC3)n2)c1C", "inhibition": 1.24}, {"smiles": "Fc1ccc(-c2ncn(C3CCNCC3)c2-c2ccnc(Oc3cccc(F)c3)n2)cc1", "inhibition": -0.94}, {"smiles": "Fc1ccc(-c2ncn(C3CCNCC3)c2-c2ccnc(Oc3cccc(C(F)(F)F)c3)n2)cc1", "inhibition": 0.1}, {"smiles": "O=C1NC(=O)C(c2ccccc2Cl)=C1Nc1cc(Cl)c(O)c(Cl)c1", "inhibition": 3.41}, {"smiles": "O=C1NC(=O)C(c2ccccc2)=C1Nc1ccccc1", "inhibition": 4.37}, {"smiles": "O=C1NC(=O)C(c2cccc([N+](=O)[O-])c2)=C1Nc1cc(Cl)c(O)c(Cl)c1", "inhibition": -0.29}]}, {"target": "T1, NUAK family SNF1-like kinase 1 (Homo sapiens)", "settings": "at 1 µM", "units": {"inhibition": "%"}, "values": [{"smiles": "O=C(O)c1ccc(Oc2nccc(-c3c(-c4ccc(F)cc4)ncn3C3CCNCC3)n2)cc1", "inhibition": 1.01}, {"smiles": "CC(C)(C)c1ccc(Oc2nccc(-c3c(-c4ccc(F)cc4)ncn3C3CCNCC3)n2)cc1", "inhibition": 4.39}, {"smiles": "Fc1ccc(Oc2nccc(-c3c(-c4ccc(F)cc4)ncn3C3CCNCC3)n2)cc1", "inhibition": 3.87}, {"smiles": "COc1ccccc1C1=C(Nc2ccccc2)C(=O)NC1=O", "inhibition": 7.2}, {"smiles": "Fc1ccc(-c2ncn(C3CCNCC3)c2-c2ccnc(Oc3ccc(Cl)cc3)n2)cc1", "inhibition": -0.41}, {"smiles": "NC(=O)CCc1ccccc1Oc1nccc(-c2c(-c3ccc(F)cc3)ncn2C2CCNCC2)n1", "inhibition": 2.23}, {"smiles": "COc1ccccc1Oc1nccc(-c2c(-c3ccc(F)cc3)ncn2C2CCNCC2)n1", "inhibition": 5.84}, {"smiles": "CS(=O)(=O)c1ccc(Oc2nccc(-c3c(-c4ccc(F)cc4)ncn3C3CCNCC3)n2)cc1", "inhibition": 0.2}, {"smiles": "Cc1cccc(Oc2nccc(-c3c(-c4ccc(F)cc4)ncn3C3CCNCC3)n2)c1C", "inhibition": 1.99}, {"smiles": "Fc1ccc(-c2ncn(C3CCNCC3)c2-c2ccnc(Oc3cccc(F)c3)n2)cc1", "inhibition": 4.68}, {"smiles": "Fc1ccc(-c2ncn(C3CCNCC3)c2-c2ccnc(Oc3cccc(C(F)(F)F)c3)n2)cc1", "inhibition": -0.11}, {"smiles": "O=C1NC(=O)C(c2ccccc2Cl)=C1Nc1cc(Cl)c(O)c(Cl)c1", "inhibition": 5.33}, {"smiles": "O=C1NC(=O)C(c2ccccc2)=C1Nc1ccccc1", "inhibition": 18.5}, {"smiles": "O=C1NC(=O)C(c2cccc([N+](=O)[O-])c2)=C1Nc1cc(Cl)c(O)c(Cl)c1", "inhibition": 13.7}]}, {"target": "T2, Serine/threonine-protein kinase BRSK1 (Homo sapiens) (UniProt Q8TDC3)", "T2 sequence (whole entry)": "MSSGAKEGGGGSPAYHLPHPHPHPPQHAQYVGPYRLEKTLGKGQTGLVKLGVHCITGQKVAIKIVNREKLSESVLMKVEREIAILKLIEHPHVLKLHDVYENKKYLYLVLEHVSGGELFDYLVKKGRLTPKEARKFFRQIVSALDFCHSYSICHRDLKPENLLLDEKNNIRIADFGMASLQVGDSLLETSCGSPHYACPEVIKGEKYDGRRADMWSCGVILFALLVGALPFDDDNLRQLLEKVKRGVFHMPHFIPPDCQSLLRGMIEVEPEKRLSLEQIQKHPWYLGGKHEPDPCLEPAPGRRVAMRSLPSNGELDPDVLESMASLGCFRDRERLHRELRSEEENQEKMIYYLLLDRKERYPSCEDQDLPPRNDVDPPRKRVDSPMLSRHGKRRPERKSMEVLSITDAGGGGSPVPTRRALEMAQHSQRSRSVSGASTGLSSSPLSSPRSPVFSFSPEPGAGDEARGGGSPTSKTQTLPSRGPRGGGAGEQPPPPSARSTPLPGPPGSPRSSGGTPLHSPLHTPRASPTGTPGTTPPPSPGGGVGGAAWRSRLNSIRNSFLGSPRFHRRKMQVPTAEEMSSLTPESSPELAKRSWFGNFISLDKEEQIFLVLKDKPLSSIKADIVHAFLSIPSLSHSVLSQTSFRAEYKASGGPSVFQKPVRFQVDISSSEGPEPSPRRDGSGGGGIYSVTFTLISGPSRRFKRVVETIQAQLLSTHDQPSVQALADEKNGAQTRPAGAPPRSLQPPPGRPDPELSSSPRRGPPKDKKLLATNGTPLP", "settings": "at 0.1 µM", "units": {"inhibition": "%"}, "values": [{"smiles": "O=C(O)c1ccc(Oc2nccc(-c3c(-c4ccc(F)cc4)ncn3C3CCNCC3)n2)cc1", "inhibition": 1.46}, {"smiles": "CC(C)(C)c1ccc(Oc2nccc(-c3c(-c4ccc(F)cc4)ncn3C3CCNCC3)n2)cc1", "inhibition": -1.81}, {"smiles": "Fc1ccc(Oc2nccc(-c3c(-c4ccc(F)cc4)ncn3C3CCNCC3)n2)cc1", "inhibition": 1.52}, {"smiles": "COc1ccccc1C1=C(Nc2ccccc2)C(=O)NC1=O", "inhibition": 0.04}, {"smiles": "Fc1ccc(-c2ncn(C3CCNCC3)c2-c2ccnc(Oc3ccc(Cl)cc3)n2)cc1", "inhibition": 0.17}, {"smiles": "NC(=O)CCc1ccccc1Oc1nccc(-c2c(-c3ccc(F)cc3)ncn2C2CCNCC2)n1", "inhibition": 0.42}, {"smiles": "COc1ccccc1Oc1nccc(-c2c(-c3ccc(F)cc3)ncn2C2CCNCC2)n1", "inhibition": 1.06}, {"smiles": "CS(=O)(=O)c1ccc(Oc2nccc(-c3c(-c4ccc(F)cc4)ncn3C3CCNCC3)n2)cc1", "inhibition": -2.87}, {"smiles": "Cc1cccc(Oc2nccc(-c3c(-c4ccc(F)cc4)ncn3C3CCNCC3)n2)c1C", "inhibition": 0.41}, {"smiles": "Fc1ccc(-c2ncn(C3CCNCC3)c2-c2ccnc(Oc3cccc(F)c3)n2)cc1", "inhibition": 2.01}, {"smiles": "Fc1ccc(-c2ncn(C3CCNCC3)c2-c2ccnc(Oc3cccc(C(F)(F)F)c3)n2)cc1", "inhibition": -0.84}, {"smiles": "O=C1NC(=O)C(c2ccccc2Cl)=C1Nc1cc(Cl)c(O)c(Cl)c1", "inhibition": -1.31}, {"smiles": "O=C1NC(=O)C(c2ccccc2)=C1Nc1ccccc1", "inhibition": 3.32}, {"smiles": "O=C1NC(=O)C(c2cccc([N+](=O)[O-])c2)=C1Nc1cc(Cl)c(O)c(Cl)c1", "inhibition": -1.07}]}]}
